{
  "source": "PubChem BioAssay (Tox21)",
  "key": {"[1]": {"test": "qHTS assay to identify small molecule agonists or antagonists of the thyroid stimulating hormone receptor (TSHR) signaling pathway - wild type cell line counter screen (AID 1259384; calls by dose curve; further: on the % scale 0 is the no-effect control and ±100 the full control effect)", "conditions": "HEK293 wild type, cAMP HTRF counter-screen; cAMP activity change: at 92.4 µM (top of the series), hits give high values unless noted", "in_short": "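Wild-type Hek293 cells, 800/well, 18 h at 37C, then compound with Ro20-1724 for 30 min RT. cAMP by HTRF (cAMP-d2/anti-cAMP cryptate), 1 h RT, fluorescence read. 15 concentrations, triplicates.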"}, "[2]": {"target": "Thyrotropin receptor (Homo sapiens) (UniProt P16473)", "sequence (P16473 whole entry, looked up)": "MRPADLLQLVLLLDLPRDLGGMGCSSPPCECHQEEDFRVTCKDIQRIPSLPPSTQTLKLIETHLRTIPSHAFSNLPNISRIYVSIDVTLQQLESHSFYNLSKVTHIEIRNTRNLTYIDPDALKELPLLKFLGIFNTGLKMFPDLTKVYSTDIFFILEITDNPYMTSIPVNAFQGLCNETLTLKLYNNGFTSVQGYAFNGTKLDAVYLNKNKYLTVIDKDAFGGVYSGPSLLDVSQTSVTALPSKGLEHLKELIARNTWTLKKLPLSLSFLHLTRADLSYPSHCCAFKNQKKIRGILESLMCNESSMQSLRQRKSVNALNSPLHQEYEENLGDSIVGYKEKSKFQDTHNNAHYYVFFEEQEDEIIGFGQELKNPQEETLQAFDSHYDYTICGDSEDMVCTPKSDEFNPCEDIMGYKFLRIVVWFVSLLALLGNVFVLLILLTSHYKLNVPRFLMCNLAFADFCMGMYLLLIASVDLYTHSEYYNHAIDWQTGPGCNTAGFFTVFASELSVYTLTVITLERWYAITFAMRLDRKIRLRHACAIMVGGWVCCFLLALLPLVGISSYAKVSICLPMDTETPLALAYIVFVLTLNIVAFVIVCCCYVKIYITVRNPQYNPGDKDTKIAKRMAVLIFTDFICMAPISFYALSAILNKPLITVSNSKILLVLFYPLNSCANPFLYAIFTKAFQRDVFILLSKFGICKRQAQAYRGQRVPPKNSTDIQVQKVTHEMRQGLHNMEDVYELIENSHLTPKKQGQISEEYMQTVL", "test": "qHTS assay to identify small molecule antagonists of the thyroid stimulating hormone receptor (TSHR) signaling pathway (AID 1259385; calls by dose curve; further: potency means the concentration at half of the fitted maximal effect; nearly all actives have a fitted effect of over 20% in size)", "conditions": "TSHR-HEK293 cAMP HTRF, TSH-stimulated antagonist mode; activity change, negative = inhibition: at 92.4 µM (top of the series) unless noted", "in_short": "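TSHR-HEK293 cells (800/well) plated 18 h, then compounds with Ro20-1724 and TSH at 1.5 ng/mL final, 30 min at room temperature. cAMP quantified by HTRF (cAMP-d2/anti-cAMP-cryptate, 1 h); 15 concentrations in triplicate.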"}, "[3]": {"test": "qHTS assay to identify small molecule agonists of the estrogen receptor alpha (ER-alpha) signaling pathway in the presence of an antagonist - cell viability counter screen (AID 1259386); further: potency means the concentration at half of the fitted maximal effect; nearly all actives have a fitted effect of over 30% in size", "in_short": "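VM7Luc4E2, stripped-serum pre-culture 5 d; 24hr plating; +ICI-182,780 10.0nM final; cpds 15 conc, 22hr, 37C/5% CO2; CellTiter-Fluor added at 21hr, fluorescence 1hr later.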"}, "[4]": {"test": "qHTS assay to identify small molecule agonists of the progesterone receptor (PR) signaling pathway - cell viability counter screen (AID 1346799; calls by dose curve; further: nearly all actives have a fitted effect of over 45% in size; further: potency means the concentration at half of the fitted maximal effect)", "in_short": "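Counter screen for cytotoxicity: compound-treated PR-UAS-bla HEK293T cells (16 hr, 37C, 5% CO2) were assayed with CellTiter-Glo, luminescence measured after 30 min at room temperature.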"}, "[5]": {"test": "qHTS assay to identify small molecule antagonists of the estrogen receptor beta (ER-beta) signaling pathway - cell viability counter screen (AID 1259382); further: nearly all actives have a fitted effect of over 55% in size; further: potency means the concentration at half of the fitted maximal effect", "in_short": "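Cells: ER-beta-UAS-bla HEK293T, 2,000/well, 2% CS-FBS, 6 hr settle. Cpd + E2 (1nM final), 16 hr, 37C/5% CO2. Bla FRET substrate 2 hr RT, then CellTiter-Glo 30 min RT, luminescence.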"}, "[6]": {"target": "Progesterone receptor (Homo sapiens) (UniProt P06401)", "sequence (P06401 whole entry, looked up)": "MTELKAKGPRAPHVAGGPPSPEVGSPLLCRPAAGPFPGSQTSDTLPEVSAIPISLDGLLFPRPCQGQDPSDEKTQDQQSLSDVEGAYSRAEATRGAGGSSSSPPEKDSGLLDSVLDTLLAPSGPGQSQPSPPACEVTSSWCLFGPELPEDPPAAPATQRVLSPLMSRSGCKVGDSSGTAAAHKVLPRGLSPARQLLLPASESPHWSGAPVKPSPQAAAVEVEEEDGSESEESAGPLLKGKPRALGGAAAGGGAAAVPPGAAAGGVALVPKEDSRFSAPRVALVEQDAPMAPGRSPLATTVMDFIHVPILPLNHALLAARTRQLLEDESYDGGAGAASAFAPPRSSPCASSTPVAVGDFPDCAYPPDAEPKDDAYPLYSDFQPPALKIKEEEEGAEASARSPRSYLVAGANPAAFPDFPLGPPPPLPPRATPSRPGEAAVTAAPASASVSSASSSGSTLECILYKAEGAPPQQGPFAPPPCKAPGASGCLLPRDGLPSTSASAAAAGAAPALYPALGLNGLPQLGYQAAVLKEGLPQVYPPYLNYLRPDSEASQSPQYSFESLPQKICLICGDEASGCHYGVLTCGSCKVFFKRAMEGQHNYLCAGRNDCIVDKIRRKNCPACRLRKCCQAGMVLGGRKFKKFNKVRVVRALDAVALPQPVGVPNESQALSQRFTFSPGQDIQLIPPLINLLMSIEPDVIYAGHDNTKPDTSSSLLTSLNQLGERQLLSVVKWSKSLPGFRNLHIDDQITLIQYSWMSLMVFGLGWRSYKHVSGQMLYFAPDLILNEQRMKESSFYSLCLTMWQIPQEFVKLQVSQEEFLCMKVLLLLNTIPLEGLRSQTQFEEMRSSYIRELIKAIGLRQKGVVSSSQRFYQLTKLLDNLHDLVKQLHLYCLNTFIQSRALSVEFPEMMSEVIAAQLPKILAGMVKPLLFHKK", "test": "qHTS assay to identify small molecule antagonists of the progesterone receptor (PR) signaling pathway (AID 1346795; active means well fitted inhibition curve with a large enough effect in the signal ratio in the repeat runs, not every such curve was filed as active; inconclusive means weak or mixed curves; the % refers to the signal ratio; further: potency means the concentration at half of the fitted maximal effect; on activity change, negative = inhibition: on the % scale 0 is the no-effect control and ±100 the full control effect)", "conditions": "PR-UAS-bla HEK293T, beta-lactamase FRET ratio, 16 h", "in_short": "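HEK293T PR-UAS-bla reporter cells in charcoal-stripped serum (2%) received compound after a 6 hr settling period, followed by R5020 agonist at 1 nM final; 16 hr incubation preceded the FRET substrate step and fluorescence measurement.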"}, "[7]": {"test": "qHTS assay to identify small molecule antagonists of the progesterone receptor (PR) signaling pathway - cell viability counter screen (AID 1346798); further: potency means the concentration at half of the fitted maximal effect; nearly all actives have a fitted effect of over 50% in size", "in_short": "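Same-well multiplex: after 16 hr at 37C with compound and R5020 stimulation, HEK293T cells carrying a UAS-bla reporter received LiveBLAzer substrate (2 hr RT), then CellTiter-Glo (30 min RT) for luminescent viability.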"}, "[8]": {"test": "qHTS assay to identify small molecule agonists of the TGF-beta/Smad signaling pathway - cell viability counter screen (AID 1346829); further: potency means the concentration at half of the fitted maximal effect; nearly all actives have a fitted effect of over 45% in size", "in_short": "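Luminescence from CellTiter-Glo, read after a 30 min room-temperature incubation, gives cell viability of SBE-bla HEK 293T cells treated 5 hr with compounds at 37 C.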"}, "[9]": {"test": "qHTS assay to identify small molecule antagonists of the TGF-beta/Smad signaling pathway (AID 1346924; active means well fitted inhibition curve with a large enough effect in the signal ratio in the repeat runs, not every such curve was filed as active; inconclusive means weak or mixed curves; the % refers to the signal ratio)", "conditions": "SBE-bla HEK293T, TGF-beta/Smad reporter, beta-lactamase ratio; activity, negative = inhibition: at 76.8 µM (top of the series) unless noted", "in_short": "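SBE-bla HEK 293T cells were plated overnight, then received compound in DMSO plus TGF-beta1 (added as a 0.25 ng/mL solution) and were incubated 5 h at 37 C. Beta-lactamase reporter activity was read after 2 h at room temperature with LiveBLAzer B/G FRET substrate (ex 405, em 460/530 nm).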"}, "[10]": {"test": "qHTS assay to identify small molecule antagonists of the TGF-beta/Smad signaling pathway - cell viability counter screen (AID 1346824); further: potency means the concentration at half of the fitted maximal effect; nearly all actives have a fitted effect of over 50% in size", "in_short": "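SBE-bla HEK 293T cells, incubated overnight, then compound plus 0.25 ng/mL TGF-beta1 (stock added) for 5 hr at 37 C. Viability was read in the same wells by CellTiter-Glo luminescence after 30 min at room temperature.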"}, "[11]": {"target": "Progesterone receptor (Homo sapiens) (UniProt P06401)", "test": "qHTS assay to identify small molecule agonists of the progesterone receptor (PR) signaling pathway (AID 1346784; calls by dose curve; further: potency means the concentration at half of the fitted maximal effect; nearly all actives have a fitted effect of over 30% in size)", "conditions": "PR-UAS-bla HEK293T, beta-lactamase FRET ratio, 16 h; activation: at 92.4 µM (top of the series) unless noted", "in_short": "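Agonist mode, quantitative HTS format in a HEK 293T line expressing a UAS-controlled beta-lactamase reporter; 16 hr compound exposure at 37C in 2% charcoal-stripped FBS, then LiveBLAzer B/G FRET fluorescence.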"}, "[12]": {"test": "qHTS assay to identify small molecule agonists of the TGF-beta/Smad signaling pathway (AID 1346859; active means well fitted activation curve with a large enough effect in the signal ratio in the repeat runs, not every such curve was filed as active; inconclusive means weak or mixed curves; the % refers to the signal ratio; further: on the % scale 0 is the no-effect control and ±100 the full control effect)", "conditions": "SBE-bla HEK293T, TGF-beta/Smad beta-lactamase reporter, 5 h; activation: at 76.8 µM (top of the series) unless noted", "in_short": "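Smad-responsive beta-lactamase reporter cells (HEK 293T) received compounds from DMSO stocks after overnight attachment, were incubated 5 hr, then treated 2 hr with FRET substrate before dual-emission fluorescence measurement (405 nm excitation).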"}, "[13]": {"conditions": "activity change, negative = inhibition: at 92.4 µM (top of the series) unless noted"}},
  "note": "“And” between values parts separate entries of the source, which are not always exact repeats. Equal values may be shown once. Inconclusive means that the source gave no clear call. Such entries were picked first, then a sample of the others. For some of these results: Where the call is inconclusive, the potency comes from a doubtful curve fit. More than one record can exist for a structure, and the calls need not agree. The source made the active and inactive calls. Unless noted, the call rests on the fitted dose curve; in most records, active means well fitted curve in the direction sought with a large enough effect in the repeat runs; inconclusive means weak or mixed curves; inactive means no such curve, though single readings can be large; an effect the other way counts as inactive or inconclusive. Tags describe the fitted curve by direction and shape or compound fluorescence and quenching.",
  "data": [
    {"molecule": "O=S(=O)(O)c1cc(S(=O)(=O)O)c2c(N=Nc3ccccc3)c(O)ccc2c1", "values": [
      {"measurement": "cAMP activity change", "setting": "[1]", "value": "inconclusive: -2.33%"},
      {"measurement": "Potency", "setting": "[2]", "value": "inconclusive: 17.2 µM [falling, full curve]"},
      {"measurement": "Potency", "setting": "[3]", "value": "active: 61.4 µM and active: 27.3 µM"},
      {"measurement": "Potency", "setting": "[4]", "value": "inactive"}
    ]},
    {"molecule": "CCC(C)(C)C(=O)O[C@H]1C[C@@H](C)C=C2C=C[C@H](C)[C@H](CC[C@@H]3C[C@@H](O)CC(=O)O3)[C@H]21", "values": [
      {"measurement": "Potency", "setting": "[5]", "value": "inconclusive: 27.3 µM [cytotoxic, partial curve, poor fit]"},
      {"measurement": "activity change, negative = inhibition", "setting": "[6]; at 42.5 µM (top of the series)", "value": "inconclusive: -35.5%"},
      {"measurement": "activity change, negative = inhibition", "setting": "[6]; at 92.4 µM (top of the series)", "value": "inconclusive: 3.15%"},
      {"measurement": "Potency", "setting": "[7]", "value": "inconclusive: 5.96 µM [cytotoxic, partial curve]"},
      {"measurement": "Potency", "setting": "[4]", "value": "inconclusive: 864 nM [cytotoxic, full curve] and inconclusive: 2.98 µM [cytotoxic]"},
      {"measurement": "Potency", "setting": "[8]", "value": "inconclusive: 27.5 µM [rising, partial curve, poor fit]"},
      {"measurement": "activity, negative = inhibition", "setting": "[9]", "value": "inconclusive: 10.3%"}
    ]},
    {"molecule": "Cc1cc(C)nc(NS(=O)(=O)c2ccc(N)cc2)n1", "values": [
      {"measurement": "Potency", "setting": "[5]", "value": "inactive"}
    ]},
    {"molecule": "CCOC(=O)[C@H](CCc1ccccc1)N[C@@H](C)C(=O)N(CC(=O)O)C1Cc2ccccc2C1", "values": [
      {"measurement": "Potency", "setting": "[5]", "value": "active: 11.9 µM"},
      {"measurement": "Potency", "setting": "[6]; [13]", "value": "inconclusive: 26.6 µM [rising, partial curve]"},
      {"measurement": "Potency", "setting": "[7]", "value": "active: 6.68 µM"},
      {"measurement": "Potency", "setting": "[4]", "value": "inconclusive: 8.41 µM [cytotoxic, partial curve, poor fit]"}
    ]},
    {"molecule": "S=C1NC=NC2N=CNC12", "note": "(stereo not drawn)", "values": [
      {"measurement": "Potency", "setting": "[5]", "value": "inconclusive: 2.73 µM [cytotoxic, full curve]"},
      {"measurement": "activity change, negative = inhibition", "setting": "[6]; [13]", "value": "inconclusive: -46.6%"},
      {"measurement": "Potency", "setting": "[4]", "value": "inconclusive: 6.86 µM [cytotoxic, full curve]"},
      {"measurement": "Potency", "setting": "[10]", "value": "active: 3.47 µM"},
      {"measurement": "Potency", "setting": "[8]", "value": "inconclusive: 2.19 µM [cytotoxic, full curve]"},
      {"measurement": "activity, negative = inhibition", "setting": "[9]", "value": "inconclusive: -50.6%"}
    ]},
    {"molecule": "[Cl][In]([Cl])[Cl]", "values": [
      {"measurement": "Potency", "setting": "[5]", "value": "inconclusive: 54.5 µM [rising, partial curve, poor fit]"},
      {"measurement": "Potency", "setting": "[11]", "value": "active: 27.3 µM"},
      {"measurement": "activity change, negative = inhibition", "setting": "[6]; [13]", "value": "inconclusive: 6.79%"},
      {"measurement": "activity change, negative = inhibition", "setting": "[6]; at 92.4 µM (top of the series)", "value": "inactive: 9.32%"},
      {"measurement": "Potency", "setting": "[12]", "value": "inactive"},
      {"measurement": "activity, negative = inhibition", "setting": "[9]", "value": "inconclusive: 0.102%"}
    ]}
  ]
}
